Common to all, as to conditions: both partners purified
For assay [1], the target named is T1, SEPT2/6/7 (wild type septin complex; hexamers polymerized to filaments) (UniProt Q15019 1-361; Q14141 1-434; Q16181 1-437).
T1 construct: SEPT2, from a pET15-derived plasmid expressing His6-SEPT2 (gift from Elias Spiliotis); SEPT6, from a pCDF-derived plasmid expressing SEPT6 and SEPT7 (gift from Elias Spiliotis); SEPT7, from a pCDF-derived plasmid expressing SEPT6 and SEPT7 (gift from Elias Spiliotis); in the assays it stood as filaments, polymers of hexamers; also called SEPT2/6/7 filaments; septin filaments; source: E. coli …
T1 sequence (looked up) 1: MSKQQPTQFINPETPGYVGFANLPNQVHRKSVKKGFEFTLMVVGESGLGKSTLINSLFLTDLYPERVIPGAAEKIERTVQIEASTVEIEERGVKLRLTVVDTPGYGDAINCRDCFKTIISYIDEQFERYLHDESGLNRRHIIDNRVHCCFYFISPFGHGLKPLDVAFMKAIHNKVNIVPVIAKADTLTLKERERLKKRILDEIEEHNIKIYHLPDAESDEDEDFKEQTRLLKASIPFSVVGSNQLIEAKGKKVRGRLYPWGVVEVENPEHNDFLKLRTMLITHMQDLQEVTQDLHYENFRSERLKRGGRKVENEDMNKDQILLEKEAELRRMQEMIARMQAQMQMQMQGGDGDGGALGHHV
T1 sequence (looked up) 2: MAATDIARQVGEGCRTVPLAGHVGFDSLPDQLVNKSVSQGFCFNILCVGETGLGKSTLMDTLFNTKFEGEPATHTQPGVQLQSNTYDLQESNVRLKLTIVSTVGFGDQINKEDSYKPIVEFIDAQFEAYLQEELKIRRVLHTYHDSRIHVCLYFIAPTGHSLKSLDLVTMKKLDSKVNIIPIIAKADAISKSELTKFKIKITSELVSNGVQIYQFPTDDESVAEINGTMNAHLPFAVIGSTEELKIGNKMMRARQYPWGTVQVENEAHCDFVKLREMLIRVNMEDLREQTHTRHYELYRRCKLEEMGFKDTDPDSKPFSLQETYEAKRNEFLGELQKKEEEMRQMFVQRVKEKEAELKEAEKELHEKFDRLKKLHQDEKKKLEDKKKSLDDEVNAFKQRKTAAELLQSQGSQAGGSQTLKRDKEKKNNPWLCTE
T1 sequence (looked up) 3: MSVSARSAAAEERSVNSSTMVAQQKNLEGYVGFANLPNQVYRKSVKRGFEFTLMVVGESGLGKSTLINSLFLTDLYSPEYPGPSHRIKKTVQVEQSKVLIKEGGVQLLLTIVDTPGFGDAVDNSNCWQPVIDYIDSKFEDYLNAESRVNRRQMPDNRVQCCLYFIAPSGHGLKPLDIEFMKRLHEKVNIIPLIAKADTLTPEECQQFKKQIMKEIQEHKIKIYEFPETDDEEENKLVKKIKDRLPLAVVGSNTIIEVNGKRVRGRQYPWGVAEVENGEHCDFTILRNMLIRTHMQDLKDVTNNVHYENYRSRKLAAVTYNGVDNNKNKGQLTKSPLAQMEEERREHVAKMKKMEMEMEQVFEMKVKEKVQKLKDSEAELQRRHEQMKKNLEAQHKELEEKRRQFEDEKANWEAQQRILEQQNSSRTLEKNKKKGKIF
Put plainly: fluorescence polarisation; fluorescence anisotropy; 20 nM TMR-Cdc42EP3 fixed, SEPT2/6/7 filaments titrated; 1x KMEI, 1 mg/ml BSA; single-site fit. (In general: Polarisation of emitted light reports the rotation of a fluorescent probe.)

The target in assay [2] is T2, actin (rabbit muscle) (rabbit, UniProt P68135). Put plainly: fluorescence polarisation; fluorescence anisotropy; 20 nM TMR-Cdc42EP3 fixed, actin monomer titrated with 20 uM Latrunculin A; 1x KMEI, 1 mg/ml BSA; single-site fit.
For assay [3], the target named is T2, actin (rabbit muscle). The assay is described as follows: fluorescence polarisation; fluorescence anisotropy; 20 nM TMR-labeled Cdc42EP3 or variant fixed, actin filaments (polymerized in 1x KMEI) titrated; 1 mg/ml BSA; single-site fit.

B1: Cdc42EP3 labeled with tetramethylrhodamine (TMR) at C211 (natural protein)
chain: not shown
modifications: tetramethylrhodamine (TMR-5-maleimide) at C211
notes: Cdc42EP3 (BORG2), human, single-cysteine construct whose unique cysteine is C211; also called Cdc42EP3-TMR F.A. probe; TMR labeled Cdc42EP3; source: E. coli BL21(DE3)-T1R, purified (amylose, TEV cleavage, Mono S), labeled with TMR-5-maleimide, Superdex 200; not shown: MBP, N-terminal, cleaved
For orientation: Kd means a measure of binding affinity in units of concentration. The low end stands for higher affinity, the high end for lower affinity. For B1, the Kd in assay [1] stood at 400 nM; in assay [2] it was 1200 nM; in assay [3], 1700 nM.

These data come from publication PMC11952830, “Cdc42EP3-bound septin scaffolds promote actin polymerization” (The Journal of Biological Chemistry, 2025).
